Test results reported in PMC4564936, “The Complex Energy Landscape of the Protein IscU” (Biophysical Journal, 2015).

Target: the molecule itself
Assay: SAXS; purified protein dialysed extensively (>12 h), buffer conditions as used for the NMR studies with DTT as reductant; variable temperature; molecular mass by the Vc method; monomer to dimer

B1: IscU(P101A) (natural protein, E. coli, UniProt P0ACD4 1-128, looked up)
chain: MAYSEKVIDHYENPRNVGSFDNNDENVGSGMVGAPACGDVMKLQIKVNDEGIIEDARFKTYGCGSAIASSSLVTEWVKGKSLDEAQAIKNTDIAEELELPAVKIHCSILAEDAIKAAIADYKSKREAK
notes: IscU, E. coli, variant P101A; cloned in a pE-SUMO plasmid; also called P101A variant of IscU; source: E. coli BL21 RILP(DE3), purified (Ni-NTA, SUMO protease cleavage, IMAC flow-through, gel filtration)
- stoichiometry N: 2
